According to the supplement of paper PMC9151546:
Most values come without repeats; read them as rough.

Legend:
CHO-K1 [1] = assay: micronucleus frequency (% of nucleated events); higher = more micronuclei (genotoxic)
CHO-K1 [2] = assay: hypodiploid nuclei frequency (% of nucleated events); higher = more hypodiploid events (aneugenic)
Description: (§1)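 Flow-cytometric in vitro micronucleus assay (Litron MicroFlow) in CHO-K1 cells in 96-well plates, 19 concentrations (4.5-200 µM, n=1 per concentration). Without S9, cells were exposed for 24 h and sampled at 48 h. With Aroclor 1254-induced rat liver S9, cells were exposed for 3-4 h and sampled at 27-28 h. Read-outs are %MN and %hypodiploid nuclei relative to nucleated events, and relative survival as the nuclei-to-bead ratio versus the 1% DMSO vehicle control (x100).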

CHO-K1 [3] = assay: relative survival (nuclei to bead ratio vs DMSO control) (% of vehicle control); higher = more surviving cells
Description: as §1
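For hypodiploid nuclei frequency (% of nucleated events) in this document: hypodiploid nuclei gated on a flow cytometer with 488 nm excitation after SYTOX Green staining, cultures at 37 °C, positive controls vinblastine without S9 and cyclophosphamide with S9.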
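For micronucleus frequency (% of nucleated events) in this document: cells lysed with nuclei stained by SYTOX Green, then micronucleus-gated events counted against nucleated events by flow cytometry with 488 nm excitation.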
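For relative survival (nuclei to bead ratio vs DMSO control) in this document: Lysed-cell nuclei stained with SYTOX Green and counted against counting beads by flow cytometry at 488 nm excitation, with vinblastine (no S9) and cyclophosphamide (plus S9) as positive controls.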

Cc1cc(-c2ccc(N)c(C)c2)ccc1N [3,3'-Dimethylbenzidine]
Conditions | hypodiploid nuclei frequency, CHO-K1 [2] [%] | micronucleus frequency, CHO-K1 [1] [%] | relative survival, CHO-K1 [3]
concentration: 4.5 (µM), S9 metabolic activation: with S9, exposure time: 3-4 hours | 0.32 | 0.7 | 116
concentration: 4.5 (µM), S9 metabolic activation: without S9, exposure time: 24 hours | 0.78 | 1.26 | 122
concentration: 5.63 (µM), S9 metabolic activation: with S9, exposure time: 3-4 hours | 0.34 | 0.98 | 115
concentration: 5.63 (µM), S9 metabolic activation: without S9, exposure time: 24 hours | 1.02 | 1.46 | 122
concentration: 7.04 (µM), S9 metabolic activation: with S9, exposure time: 3-4 hours | 0.12 | 1.02 | 114
concentration: 7.04 (µM), S9 metabolic activation: without S9, exposure time: 24 hours | 0.86 | 2.04 | 118
concentration: 8.8 (µM), S9 metabolic activation: with S9, exposure time: 3-4 hours | 0.28 | 1.04 | 103
concentration: 8.8 (µM), S9 metabolic activation: without S9, exposure time: 24 hours | 1.38 | 1.08 | 115
concentration: 11 (µM), S9 metabolic activation: with S9, exposure time: 3-4 hours | 0.48 | 0.86 | 124
concentration: 11 (µM), S9 metabolic activation: without S9, exposure time: 24 hours | 1.52 | 1.44 | 126
concentration: 13.7 (µM), S9 metabolic activation: with S9, exposure time: 3-4 hours | 0.32 | 1 | 104
concentration: 13.7 (µM), S9 metabolic activation: without S9, exposure time: 24 hours | 1.88 | 1.64 | 117
concentration: 17.2 (µM), S9 metabolic activation: with S9, exposure time: 3-4 hours | 0.34 | 1.2 | 105
concentration: 17.2 (µM), S9 metabolic activation: without S9, exposure time: 24 hours | 2.34 | 1.22 | 122
concentration: 21.5 (µM), S9 metabolic activation: with S9, exposure time: 3-4 hours | 0.3 | 1.18 | 98
concentration: 21.5 (µM), S9 metabolic activation: without S9, exposure time: 24 hours | 2.72 | 1.6 | 121
concentration: 26.8 (µM), S9 metabolic activation: with S9, exposure time: 3-4 hours | 0.3 | 1.2 | 120
concentration: 26.8 (µM), S9 metabolic activation: without S9, exposure time: 24 hours | 1.06 | 1.58 | 94.6
concentration: 33.6 (µM), S9 metabolic activation: with S9, exposure time: 3-4 hours | 0.18 | 1.02 | 125
concentration: 33.6 (µM), S9 metabolic activation: without S9, exposure time: 24 hours | 1.44 | 1.22 | 105
concentration: 41.9 (µM), S9 metabolic activation: with S9, exposure time: 3-4 hours | 0.3 | 0.98 | 137
concentration: 41.9 (µM), S9 metabolic activation: without S9, exposure time: 24 hours | 1.52 | 1.52 | 102
concentration: 52.4 (µM), S9 metabolic activation: with S9, exposure time: 3-4 hours | 0.26 | 0.96 | 114
concentration: 52.4 (µM), S9 metabolic activation: without S9, exposure time: 24 hours | 1.7 | 1.7 | 111
concentration: 65.5 (µM), S9 metabolic activation: with S9, exposure time: 3-4 hours | 0.2 | 1.1 | 120
concentration: 65.5 (µM), S9 metabolic activation: without S9, exposure time: 24 hours | 1.76 | 1.5 | 90
concentration: 81.9 (µM), S9 metabolic activation: with S9, exposure time: 3-4 hours | 0.48 | 1.12 | 116
concentration: 81.9 (µM), S9 metabolic activation: without S9, exposure time: 24 hours | 2.56 | 1.56 | 96.6
concentration: 102 (µM), S9 metabolic activation: with S9, exposure time: 3-4 hours | 0.36 | 1 | 117
concentration: 102 (µM), S9 metabolic activation: without S9, exposure time: 24 hours | 2.52 | 1.74 | 86.3
concentration: 128 (µM), S9 metabolic activation: with S9, exposure time: 3-4 hours | 0.38 | 0.92 | 108
concentration: 128 (µM), S9 metabolic activation: without S9, exposure time: 24 hours | 4.1 | 2.68 | 77.6
concentration: 160 (µM), S9 metabolic activation: with S9, exposure time: 3-4 hours | 0.34 | 1.18 | 116
concentration: 160 (µM), S9 metabolic activation: without S9, exposure time: 24 hours | 5.24 | 3.26 | 77.4
concentration: 200 (µM), S9 metabolic activation: with S9, exposure time: 3-4 hours | 0.32 | 1.02 | 109
concentration: 200 (µM), S9 metabolic activation: without S9, exposure time: 24 hours | 5.34 | 4.3 | 68
